Paper PMC4336329 (PLoS ONE, 2015)
In all, about 310,000 compounds went through this assay and about 2,200 (0.71%) showed an effect of 50% or more. The effect is printed as a negative number. Some of the results follow.

Target: human ether-à-go-go-related gene (hERG) potassium channel (human, UniProt Q12809)
Assay: primary screen, population patch clamp on CHO cells stably expressing hERG

human ether-à-go-go-related gene (hERG) potassium channel, sequence (Q12809 whole entry, looked up): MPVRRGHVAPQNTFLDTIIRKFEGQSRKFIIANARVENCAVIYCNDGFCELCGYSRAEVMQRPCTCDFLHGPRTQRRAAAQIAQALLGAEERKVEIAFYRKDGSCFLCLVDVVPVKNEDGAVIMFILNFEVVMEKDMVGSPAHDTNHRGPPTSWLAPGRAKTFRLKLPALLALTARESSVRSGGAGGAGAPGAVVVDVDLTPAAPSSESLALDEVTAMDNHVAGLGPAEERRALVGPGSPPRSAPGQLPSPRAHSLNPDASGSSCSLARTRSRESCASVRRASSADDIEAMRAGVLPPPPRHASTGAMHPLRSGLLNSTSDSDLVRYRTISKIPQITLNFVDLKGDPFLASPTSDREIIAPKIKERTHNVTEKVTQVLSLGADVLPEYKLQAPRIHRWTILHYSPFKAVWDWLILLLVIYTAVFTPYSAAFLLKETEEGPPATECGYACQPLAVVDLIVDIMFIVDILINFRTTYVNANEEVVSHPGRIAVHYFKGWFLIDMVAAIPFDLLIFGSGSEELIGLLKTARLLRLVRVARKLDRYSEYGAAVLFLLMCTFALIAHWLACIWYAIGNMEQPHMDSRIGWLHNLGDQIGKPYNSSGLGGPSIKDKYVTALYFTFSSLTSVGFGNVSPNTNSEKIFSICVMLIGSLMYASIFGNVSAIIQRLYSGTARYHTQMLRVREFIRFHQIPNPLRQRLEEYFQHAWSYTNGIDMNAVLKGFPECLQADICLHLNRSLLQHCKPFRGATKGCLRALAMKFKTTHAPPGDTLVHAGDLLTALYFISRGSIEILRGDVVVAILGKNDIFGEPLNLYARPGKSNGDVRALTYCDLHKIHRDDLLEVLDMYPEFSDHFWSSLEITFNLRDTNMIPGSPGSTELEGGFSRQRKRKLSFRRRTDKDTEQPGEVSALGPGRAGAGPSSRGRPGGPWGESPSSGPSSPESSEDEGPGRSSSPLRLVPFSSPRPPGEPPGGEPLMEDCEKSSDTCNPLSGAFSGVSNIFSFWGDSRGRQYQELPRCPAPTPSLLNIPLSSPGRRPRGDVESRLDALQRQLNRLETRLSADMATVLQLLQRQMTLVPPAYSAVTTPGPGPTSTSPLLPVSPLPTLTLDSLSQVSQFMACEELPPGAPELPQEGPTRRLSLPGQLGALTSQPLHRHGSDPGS

Row | Structure (SMILES) | hERG current change (%, negative = inhibition) at 1uM [%]
1 | O=c1[nH]nc(SCc2ccccc2)n1C1CC2C=CC1C2 (centres unmarked) | 12.9
2 | COc1ccc(-c2nc(-c3ccc(Br)o3)no2)cc1OC | 9.14
3 | Cc1cccc(-n2nnc(C(=O)NCc3ccccn3)c2N)c1 | 6.6
4 | O=C(CCNc1n[nH]c(=O)[nH]c1=O)N1CCOCC1 | -8.49
5 | CC(C)(C)c1ccc(C(=O)NCc2ccccc2)cc1 | 20.1
6 | Cn1c(-c2ccc(F)cc2)cnc1NCc1ccccc1 | -17.4
7 | CCOc1ccc(NC(=O)CSc2nnc(C3CC3)n2C2CC2)cc1 | 0.687
8 | Cc1ccc(NC(=O)Nc2ccccc2)nc1 | 13.1
9 | C=CCn1c(SCC(=O)N(CCOC)c2c(N)n(CCCC)c(=O)[nH]c2=O)nnc1-c1ccc(Cl)cc1 | -2.96
10 | COc1ccccc1CNC(=O)COc1ccc(C)cc1 | 8.73
11 | CC1(c2ccccc2)NC(=O)N(CC(=O)NC(=O)NC2CCCC2)C1=O (centres unmarked) | 7.27
12 | Cn1cnc([N+](=O)[O-])c1Nc1ccc(O)cc1 | 13.4
13 | CCCOc1cc(CC(=O)NCc2ccco2)ccc1OC | 10.5
14 | Cc1cc(C)c(C)c(OCCCCN2CCCCC2)c1 | -16.5
15 | NS(=O)(=O)c1cccc(NC(=O)COC(=O)CNC(=O)c2ccc(-c3ccccc3)cc2)c1 | 6.13
16 | CN(C)C(=O)Oc1ccc(OC(=O)c2ccccc2)cc1 | 10.4
17 | O=C(CCCOc1ccccc1)Nc1ccncc1 | 7.42
18 | Cc1ccc2c(c1)N(CC(=O)NCCc1ccccc1)C(=O)c1cccnc1O2 | 2.62
19 | COc1ccccc1CNC(=O)c1ccccc1N(C)S(C)(=O)=O | 4.21
20 | Fc1ccc(Cn2ccc(-c3cnc(-c4ccccc4)s3)n2)cc1 | 11.9
21 | COc1n[nH]c(C(=O)Nc2nc3ccccc3s2)c1[N+](=O)[O-] | 11.3
22 | CN(C(=O)CSc1nc2ccccc2s1)c1c(N)n(Cc2ccccc2)c(=O)[nH]c1=O | 7.34
23 | COc1ccc2c(c1)C(c1cccs1)=NNC(c1cccnc1)=N2 | 16.1
24 | N#Cc1cc2c(=O)n3ccccc3nc2n(Cc2cccnc2)c1=O | 2.54
25 | Cc1ccc2c(c1)cc1c(=O)n(CC(=O)NCCCc3ccccc3)nc(C)n12 | 14.2
26 | CCOc1ccc2c(c1)-c1c(ssc1=S)C(C)(C)N2C(=O)CSC1=NCCS1 | 6.46
